Data published in patent US10195156B2, “Compounds and compositions for intracellular delivery of agents” (ModernaTX, Inc., priority 2015, dated 2019).
For some of these results: At least one read-out could not be matched to a standard name with certainty. Some results were stated once for a whole list of compounds, not compound by compound.

Assays:
[1] = Lipid levels in liver and spleen 48 hours after administration; assay type: in vivo, rats
Method: Formulations were administered intravenously to rats (n=3 or 6) at a dosage of 0.2 mg/kg or 0.5 mg/kg (mpk) and hEPO levels measured at 3, 6, and 24 hour time points. After the 48 hour time point, livers and spleens were harvested and frozen.
The amount of lipid in the liver and spleen 48 hours after administration of a nanoparticle composition was also measured. […] In contrast, approximately 60% of doses including MC3 or Compound 22 remained in the liver after 48 hours. Less than 3% of the dose remained in the spleen for each composition tested.

[2] = tested on: Luc expression; assay: Luc expression in CD-1 mice (AUC relative to MC3); assay type: in vivo; details: Luc expression relative to MC3, CD-1 mice
Method: FIG. 15 is a graph summarizing luciferase expression levels at 6 h after administration of nanoparticle compositions containing compounds of the disclosure to CD-1 mice at a dose of 0.5 mpk. Total light flux values were acquired via body luminescent imaging (BLI) 6 h after administration. In this Figure, the numbers 1-7 and 10 refer to the compositions containing Compounds 4-10 and MC3 respectively.
In contrast, hEPO expression in rats induced by administration of a nanoparticle composition including a compound according to one of formulae (I), (Ia1)-(Ia6), (Ib), (II), (IIa), (III), and (IIIa) was substantially […] than that measured for MC3. […] Table 7c and 7d show additional protein expressions and clearance data from compositions with various compounds disclosed herein as compared to with MC3.

SMILES | dose remaining in the liver after 48 hours [1] | Lipid/MC3 Luc CD-1 (mice) [2]
CCCCCCCCCCCCN(CCCCCCCCCCCC)CCN(CCCCCCCCCCCC)CCN1CCN(CCN(CCCCCCCCCCCC(=O)OC)CCCCCCCCCCCC(=O)OC)CC1 [Compound 16, Dimethyl 12,12′-((2-(4-(2-((2-(didodecylamino)ethyl)(dodecyl)amino)ethyl)piperazin-1-yl)ethyl)azanediyl)didodecanoate] | less than 6% | 
CCCCCCCCCCCCN(CCCCCCCCCCCC)CCN(CCCCCCCCCCCC)CCN1CCN(CCN(CCCCCC(=O)OCCCCC)CCCCCC(=O)OCCCCC)CC1 [Compound 14, Dipentyl 6,6′-((2-(4-(2-((2-(didodecylamino)ethyl)(dodecyl)amino)ethyl)piperazin-1-yl)ethyl)azanediyl)dihexanoate] | less than 6% | 0.070
CCCCCCCCCCCCN(CCCCCCCCCCCC)CCN(CCCCCCCCCCCC)CCN1CCN(CCN(CCCCCCCCCCCC)CCCCCCCCCCCC(=O)OC)CC1 [Compound 15, Methyl 12-((2-(4-(2-((2-(didodecylamino)ethyl)(dodecyl)amino)ethyl)piperazin-1-yl)ethyl)(dodecyl)amino)dodecanoate] | less than 6% | 
